First the molecules themselves.
T1: UNK ZnF1-3 (human, UniProt Q9C0B0 31-174)
T1 sequence: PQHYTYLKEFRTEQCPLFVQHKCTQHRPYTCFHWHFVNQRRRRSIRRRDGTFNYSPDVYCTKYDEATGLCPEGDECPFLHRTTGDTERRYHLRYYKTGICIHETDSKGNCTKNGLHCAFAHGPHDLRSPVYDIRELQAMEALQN

B1: chr11:77340908:77340909:-_ENSG00000074201_ENST00000525064|hu_hu|hu_hu_hu_mus_True|48_108 (ssRNA)
RNA: GGGAGUUCUACAGUCCGACGAUCGUUUCGGUCCCUGGACACCGCAUGUAAACUAAUGGUGGGGUAUUCCAGUGAGAAUCCUAAUCCAGAGCCAUCUAACCAGGACAGGCGGCUCUCCGCGAUGUAAAGCGUGCCGGUGCCGAGCAACAGAGGAUUGAGCAUCA
B2: chr7:141445308:141445309:+_ENSG00000106028_ENST00000265304|hu_hu|hu_hu_hu_mus_False|48_48 (ssRNA)
RNA: GGGAGUUCUACAGUCCGACGAUCUAUGAUUGUUGUUGCUUGCCGCCUCACAUUGUUUUUAUCCAUGUACUCGCCAUAGUCCACUUUCCCUUCCAAAAAUAUACGAGCCCCCUUUUUCACAUACUGAUAUGCCACAUCUCUGAGCAACAGAGGAUUGAGCAUCA
B3: chr17:45726999:45727000:-_ENSMUSG00000023942_ENSMUST00000064889|mus_hu|FALSE|FALSE (ssRNA)
RNA: GGGAGUUCUACAGUCCGACGAUCGUUGAAGAUGGCACUGAGAGAGUUCCGCUCAGGCAAGGGUGCUGCAGGGGCGGCUGACGCCUGGGCGUCCUUGCUCAGUUCAGCAGUGACCAAGGACACAUUCUGGGACAUGUCCAGGCGCAACAGAGGAUUGAGCAUCA
B4: chrX:140365796:140365797:-_ENSMUSG00000031285_ENSMUST00000033642|mus_mus|mus_mus_mus_hu_False|1_108 (ssRNA)
RNA: GGGAGUUCUACAGUCCGACGAUCCUUCUCAUUACUUAGUGCCUGCAAGGUUCUGGUUCGGUAGAAGCUACAGUGGGCGCUGUGAGUGGGGCUAGGCAACCCAUUCAUCCGGGAGCCUCGCAUGUUCCUGGAUGUCUUGUCUCGCAACAGAGGAUUGAGCAUCA
B5: chr17:45747064:45747065:+_ENSG00000108424_ENST00000290158|hu_hu|hu_hu_hu_mus_True|38_58 (ssRNA)
RNA: GGGAGUUCUACAGUCCGACGAUCGCCCACAGUCCACGCUGUUGUGUCUCGAACAACUACACUGGGGUCUUUCAUUAAUUCUAUUAGGGUGGGCAUAGCCUGUAUAACUAAUGGUUUCAGUUGAUUAGGCUCUGGUCCUUCCAACAACAGAGGAUUGAGCAUCA
B6: chrX:98862621:98862622:+_ENSMUSG00000034160_ENSMUST00000044475|mus_hu|mus_mus_mus_hu_False|38_88 (ssRNA)
RNA: GGGAGUUCUACAGUCCGACGAUCCUGCAUCUCCUUUAGAGUGUUUCCCAUAUUGGAGUAGGCAUCAGCAAAGGUAGGACUGAUUCGAAUAGCCUCCUUAUAGUGCAUCAGAGCUUCCUGCAGUUUUCCCUGCUGCUGCAGUACCAACAGAGGAUUGAGCAUCA
B7: 155198394_155198514_4022_ncRNA_ENSMUSG00000029068_ENSMUST00000139066|mouse|control|control (ssRNA)
RNA: GGGAGUUCUACAGUCCGACGAUCCCCAGGCAUACACUCAAAGAAACAACCAGAAUGACAGCCCACAAAGUCUUACAUAACAAGUGUCCUGAGAAUUGUUUAUUCAACCACGUAAAAUUUCUCUCCAGCUGGUGGCCUGCACUCCAACAGAGGAUUGAGCAUCA
B8: 15627206_15627326_1502_CDS_ENSG00000118564_ENST00000412094|human|control|control (ssRNA)
RNA: GGGAGUUCUACAGUCCGACGAUCUACACAAAGACUUUCAACAUUUCUAUGUCUCCAUUCCACAGUAUCUUCAAUAUCAGCCAAAUCUUCAGCAUCUAACAUCCACACAUAAGGAGAAGUGAAAUUCUCAGAAGAAACAGGCUUCAACAGAGGAUUGAGCAUCA
B9: chr10:127827607:127827608:+_ENSMUSG00000014498_ENSMUST00000014642|mus_mus|FALSE|FALSE (ssRNA)
RNA: GGGAGUUCUACAGUCCGACGAUCGCCGCAGUUCUUGAGCAGGCUGAAGCUGAAAGGACUGACGGCGUCCUUGGGUGGGAAAGGCUUCAUGGUGGAAAGGAUCAAGGCCAGGCAGUCUGCCACAUCUUUGUUAGGAGCGCAGGCCAACAGAGGAUUGAGCAUCA
B10: chr12:48362563:48362564:+_ENSG00000134291_ENST00000256686|hu_hu|hu_hu_hu_mus_False|18_108 (ssRNA)
RNA: GGGAGUUCUACAGUCCGACGAUCUCCGAAGGGUGAAUCGAUAGACCCUUGCGGGGGAAACUGUAAUCACUUUGUAUGGGGAAGGAAAAGAAACGCCAAAAACUUUCCAAAAAGCGGUUCAAAAAGCAGGCGGGAGGGGGAGGUCAACAGAGGAUUGAGCAUCA
B11: chr4:17845017:17845018:+_ENSG00000109805_ENST00000514176|hu_mus|hu_hu_hu_mus_False|18_88 (ssRNA)
RNA: GGGAGUUCUACAGUCCGACGAUCGCUCUCUUAACUUGUAUCUUCAUGAGAAAUUGGUGCAAGGUUAAGUUUACUUUUCUGUAGCGCAGCUGUUUUGGCUCGUCUGGGUAAUCUCAUUUCAUUUCUGGAUGGUGGUUCAUGAUCCAACAGAGGAUUGAGCAUCA
B12: chr11:74504092:74504093:-_ENSMUSG00000020745_ENSMUST00000021091|mus_mus|motif|central (ssRNA)
RNA: GGGAGUUCUACAGUCCGACGAUCCUUCCUUUUUAAAAACGGAAUAUGCCUCUUCAUAGCCAUUUGAACGAAGAUAAUCUGCGGUAGCUCGAUUUAGUUCAUCUCGUUGUCUCUGGGACAGCACCAUUUUGGCUGUAAUGUCAACAACAGAGGAUUGAGCAUCA
B13: 30731509_30731742_2321_CDS_ENSG00000099995_ENST00000215793|human|control|control (ssRNA)
RNA: GGGAGUUCUACAGUCCGACGAUCCACCUUAAUGACAGAGACCUGGUCCGUGAGUGGGAGGGUGAAGACCAGCACCUGCCCAUUCAGUUUCCAUUCCGUCUUAUCCUGCAUGUUGGGCACCUGGACUUUGAUGGACACUGGACCCAACAGAGGAUUGAGCAUCA
B14: chr6:33282685:33282686:-_ENSG00000236104_ENST00000431845|hu_mus|FALSE|FALSE (ssRNA)
RNA: GGGAGUUCUACAGUCCGACGAUCGACGGUGCAACCCACGCCCUUCUCUAGAAUAUAUACAAGUCCACCGAGGUAAGGGAAGACUGUUUGGUGGGGGAAACCCCGGGAGCCAUUGCUCUUAGACUAAGCUCCCCAAUUGCCUGCCAACAGAGGAUUGAGCAUCA
B15: chr7:7679991:7679992:-_ENSG00000106399_ENST00000396682|hu_hu|hu_hu_hu_mus_False|48_98 (ssRNA)
RNA: GGGAGUUCUACAGUCCGACGAUCUGGGAUGAAUCUUUUCCAGCCUCCCCACGAAGCACACGGGCCGGUCGAUAUACUGUGGUAACAUGCCGGCGUUGACGCGCGCUUUGGGGAGCUGCAUUAUGUCCUCCAUGAUUCUGCCGCCAACAGAGGAUUGAGCAUCA
B16: chr4:3761713:3761714:-_ENSMUSG00000028234_ENSMUST00000103009|mus_mus|motif|central (ssRNA)
RNA: GGGAGUUCUACAGUCCGACGAUCCUCAACUCCCGGCUCAAUACUGAUGGAAGUAAUCUGCUUAACAAUCUCAGAAGGACGGUGUAAAUCAAUGAGUCGCUUGUGGAUCCUCAUCUGGAAUCGAUCCCAGGUCUUGGAACCUUCCAACAGAGGAUUGAGCAUCA
B17: chr7:133995287:133995288:-_ENSMUSG00000030689_ENSMUST00000106343|mus_mus|motif|central (ssRNA)
RNA: GGGAGUUCUACAGUCCGACGAUCGCCUGCCUUUGUUCUCAGGAAUUCUUCUAUGAGAUUGAACUCUCCACUCUGGCCACGGAGACCCUGGAGGUCACAGUCUGGGACUACGACAUUGGCAAAUCCAAUGACUUCAUAGGUGAGCAACAGAGGAUUGAGCAUCA
B18: chr4:95690885:95690886:+_ENSMUSG00000028572_ENSMUST00000156910|mus_mus|mus_mus_mus_hu_False|18_88 (ssRNA)
RNA: GGGAGUUCUACAGUCCGACGAUCUUUAGAAAAUGUUAAAUACCAUGAGCAUGCUAAUUCAAAGGCUUAUUUUAUUUUACCAGAAGUCACAGGCAAGCAGACACUACAAGAAUAUAUAAAUACAAACCUCAACAAUAUAACUGUCAACAGAGGAUUGAGCAUCA
B19: chr18:38101097:38101098:-_ENSMUSG00000024454_ENSMUST00000043498|mus_hu|motif|central (ssRNA)
RNA: GGGAGUUCUACAGUCCGACGAUCGGUGCUGACAUCUGGAUGAAGUGUGAAGUCUGGGGCAAAGUACUCGAAGUAUUCACGGUAGGGAAGCUCCUCACUAAUGGCCUCUUCUACCAGCAGCGAUGUCUCAUAUGUCCAGCAGCGCAACAGAGGAUUGAGCAUCA
B20: chr2:114342542:114342543:-_ENSMUSG00000057147_ENSMUST00000102542|mus_mus|motif|central (ssRNA)
RNA: GGGAGUUCUACAGUCCGACGAUCCUGGGAUUAAAGGUGUACACCACUGCCUGGCUACGCAUGAUUCUUAAGACAGUAAAACGGUUGUGUUAUAGGAGUGUAAUGAUGCAUAUAUGUCUUUGAACAUUUGUUAAAUCCCGUGGACAACAGAGGAUUGAGCAUCA
B21: 137534387_137536831_709_CDS_ENSG00000094880_ENST00000394886|human|control|control (ssRNA)
RNA: GGGAGUUCUACAGUCCGACGAUCCUCCUCUAUCAACUGCAACUCUGUGUAUAUAUGAGCCAGAAAAAACUCUUUCAUCCAGGUGUCUGGCAAAGACAGGAACUUCAGCAUCUCUUUGUCUGUGAUCAGGUUACAGAGUUCUAACAACAGAGGAUUGAGCAUCA
B22: chr16:94653416:94653417:+_ENSMUSG00000040785_ENSMUST00000117648|mus_hu|FALSE|FALSE (ssRNA)
RNA: GGGAGUUCUACAGUCCGACGAUCCAUGAUACUAAAAUCAAGCAGUUUAAGAGAUGCUCCAUAACGAGAAAAGAAAGUUCCUGUGGCAUCUAAGCCAAAGCUAUUAAGUUUUUGGAUCCAGGCGGCUAAUUUGGGCUCCACUUCCAACAGAGGAUUGAGCAUCA

Some of the results follow.

This experiment addresses T1, UNK ZnF1-3. The experiment in a line: nsRBNS (natural sequence RNA bind-n-seq); RBNS binding buffer (assumed for nsRBNS): 25 mM Tris pH 7.5, 150 mM KCl, 3 mM MgCl2, 0.01% Triton X-100, 500 ug/ml BSA, 20 U/ml SUPERase-In, 4 C; UNK is unkempt and MSI1 is Musashi-1; names of the RNAs are library labels; protein concentration not given here; high values mean tight binding.
On to B1, for which the binding signal was 1.01 enrichment R.
Molecule B2 registered a binding signal of 0.768 enrichment R.
Next, B3: 0.985 enrichment R.
For B4, the binding signal stood at 0.759 enrichment R.
On to B5, for which the binding signal was determined as 0.509 enrichment R.
In turn, B6 gave a binding signal of 1.03 enrichment R.
B7 yielded a binding signal of 1.59 enrichment R.
Molecule B8 had a binding signal of 0.778 enrichment R.
Turning to B9, the binding signal turned out to be 1.56 enrichment R.
Next, B10: 2.16 enrichment R; B11: 0.435 enrichment R.
In turn, B12 yielded a binding signal of 0.591 enrichment R.
Then B13, with 0.902 enrichment R; and B14, with 1.01 enrichment R; and B15, with 0.373 enrichment R.
Turning to B16, the binding signal was determined as 1.37 enrichment R.
Take B17: the binding signal worked out at 1.17 enrichment R.
In turn, B18 had a binding signal of 2.39 enrichment R.
Consider B19, for which the binding signal was 0.834 enrichment R.
Next, B20: 1.18 enrichment R; B21: 1.71 enrichment R.
B22 returned a binding signal of 1.3 enrichment R.

For the origin of these results see PMC12136788.
